{"source": "PubChem BioAssay AID1963576", "about": "(National Center for Advancing Translational Sciences (NCATS), 2024)", "note": "About 60 (0.1%) of roughly 46,000 compounds were called active. Inconclusive results (about 3%) are left out. The call rests on the fitted dose curve; in most records, active means well fitted inhibition curve with a large enough effect; inconclusive means small, poorly fitted or top-dose-only effect; inactive means no such curve, though single readings can be large or run the other way. The list shows a part of the results."}
{"assay": "Primary qHTS assay for Inhibitors of ovarian cancer metastasis using an organotypic tumor microenvironment (TME) model; further: nearly all actives have a fitted effect of over 65% in size;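 on activity change, negative = inhibition: plate controls were DMSO wells for no effect and tomatine positive control wells for full effect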.", "details": "SKOV3ip1-GFP adhesion/invasion on 3D omental model, fluorescence; series mostly up to 45.8 µM; activity change, negative = inhibition: at the top concentration", "how_it_was_run": "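Primary human omental fibroblast/mesothelial 3D culture pre-formed 48 h. SKOV3ip1-GFP cells added with compounds (0.36-46 umol/L), incubated 2 h RT/16 h 37 C, fixed; GFP cells quantified at 488/509 nm.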"}
{"smiles": "COC(=O)c1c(-c2cccs2)csc1NC(=O)c1ccc(Cl)cc1", "activity change, negative = inhibition": "inactive: -0.103%"}
{"smiles": "CCc1ccc(N(CC)C(=O)c2ccc3c(=O)n4c(nc3c2)CCCCC4)cc1", "activity change, negative = inhibition": "inactive: -6.2%"}
{"smiles": "CCOC(=O)c1c(NC(=O)COc2ccccc2F)sc2c1CCCC2", "outcome": "inactive"}
{"smiles": "Cc1cccc(CN2C(=O)c3ccccc3Sc3ccc(C(=O)N4CCCC4)cc32)c1", "activity change, negative = inhibition": "inactive: -34%"}
{"smiles": "COc1cccc(Cn2c(CNC(=O)C(C)C)nc3cccnc32)c1", "outcome": "inactive"}
{"smiles": "Cc1ccc2c(=O)c(C(=O)c3ccc(F)cc3)cn(CC(=O)NCc3ccccc3)c2n1", "activity change, negative = inhibition": "inactive: 2.52%"}
{"smiles": "CCOC(=O)c1c(NC(=O)/C=C/c2ccccc2)sc2c1CCCC2", "activity change, negative = inhibition": "inactive: 14.3%"}
{"smiles": "COc1ccc(OC)c(S(=O)(=O)NCCc2sc(-c3ccc(C)cc3)nc2C)c1", "outcome": "inactive"}
{"smiles": "COc1ccc(N2CCN(C(=O)c3ccc(C)c(NC(=O)c4nsc5ccccc45)c3)CC2)cc1", "activity change, negative = inhibition": "inactive: 9.67%"}
{"smiles": "COC(=O)c1cc(S(=O)(=O)NCC2CCN(Cc3cc(C)ccc3C)CC2)c[nH]1", "outcome": "inactive"}
{"smiles": "COc1ccccc1Nc1nn2c(=O)c3ccc(C(=O)NCc4cccs4)cc3nc2s1", "outcome": "inactive"}
{"smiles": "CC(C)(C)OC(=O)N1CCC(c2c(C(=O)NCc3ccccn3)cnn2-c2ccccc2)CC1", "activity change, negative = inhibition": "inactive: 2.57%"}
{"smiles": "COc1ccc(C(=O)Nc2ccc(-c3nc4ncccc4o3)cc2)cc1", "activity change, negative = inhibition": "inactive: 2.72%"}
{"smiles": "COc1ccc(OC)c(-c2cc(C(=O)Nc3cccc(Cl)c3C)no2)c1", "activity change, negative = inhibition": "inactive: -21.2%"}
{"smiles": "COc1cc(Cl)ccc1Nc1ncc(C(=O)N2CCN(c3ccccc3OC)CC2)c2ccccc12", "activity change, negative = inhibition": "inactive: 1.06%"}
{"smiles": "COc1ccccc1Nc1cc(C(=O)NCCCN(C)c2ccccc2)c2ccccc2n1", "activity change, negative = inhibition": "inactive: -2.41%"}
{"smiles": "COc1cccc(CNC(=O)c2ccc(Cn3c(SCc4ccccc4)nc4cccnc43)cc2)c1", "activity change, negative = inhibition": "inactive: 0.493%"}
{"smiles": "Cc1ccc(C(=O)N2CCC(c3c[nH]c4ccccc34)(c3c[nH]c4ccccc34)CC2)cc1", "outcome": "inactive"}
{"smiles": "Cn1nccc1C(=O)NCc1ccc2c(c1)CCN2C(=O)c1ccc(F)cc1", "activity change, negative = inhibition": "inactive: -25.8%"}
{"smiles": "Cc1nc2ccccc2n1CC(O)COc1ccc(C(=O)O)cc1", "note": "(stereo not drawn)", "activity change, negative = inhibition": "inactive: -6.14%"}
{"smiles": "COc1cc(NC(=O)CCc2c(C)nc3nc(-c4cc(OC)cc(OC)c4)nn3c2C)cc(OC)c1", "activity change, negative = inhibition": "inactive: -1.71%"}
{"smiles": "Cc1ccc(S(=O)(=O)c2nc(-c3ccco3)oc2SC(C)c2ccccc2)cc1", "note": "(stereo not drawn)", "outcome": "inactive"}
{"smiles": "CCC(=O)N1c2ccc(S(=O)(=O)NCc3cccc(OC)c3)cc2CC1C", "note": "(stereo not drawn)", "activity change, negative = inhibition": "inactive: 18.1%"}
{"smiles": "O=C(CSc1nc(-c2ccccc2)nc2c1CCCC2)c1ccc(F)cc1", "activity change, negative = inhibition": "inactive: 3.58%"}
{"smiles": "COc1ccccc1/C=C/c1nc(C#N)c(N2CCCCCC2)o1", "outcome": "inactive"}
{"smiles": "CCCCN(Cc1ccccc1)C(=O)c1oc(=O)c2ccccc2c1-c1ccc(C)cc1", "activity change, negative = inhibition": "inactive: -2.12%"}
{"smiles": "CC1CCCN(S(=O)(=O)c2ccc(NC(=O)c3nc(SC(C)C)ncc3Cl)cc2)C1", "note": "(stereo not drawn)", "activity change, negative = inhibition": "inactive: -0.884%"}
{"smiles": "CCC(Sc1nnc(-c2ccc(OC)cc2)c(-c2ccc(OC)cc2)n1)C(=O)NC1CCCCC1", "note": "(stereo not drawn)", "activity change, negative = inhibition": "inactive: -9.87%"}
{"smiles": "CCn1c(C(=O)N2CCC(C(=O)NCCc3ccccc3)CC2)cc2sccc21", "activity change, negative = inhibition": "inactive: -11.9%"}
{"smiles": "Cc1ccc(NS(=O)(=O)c2ccc(NC(=O)N3CCCC3)cc2)cc1C", "activity change, negative = inhibition": "inactive: 4.52%"}
{"smiles": "Cc1ccc(-n2c3nc(=O)n(C)c(=O)c-3cc3c(Cl)cccc32)c(C)c1", "activity change, negative = inhibition": "inactive: -1.71%"}
{"smiles": "COc1cccc(N2CC(NC(=O)/C=C\\c3ccc4c(c3)OCO4)CC2=O)c1", "note": "(stereo not drawn)", "activity change, negative = inhibition": "inactive: -2.37%"}
{"smiles": "COc1ccc(N2CC(NC(=O)c3ccc(S(=O)(=O)N4CCCC4)cc3)CC2=O)cc1", "note": "(stereo not drawn)", "activity change, negative = inhibition": "inactive: -1.91%"}
{"smiles": "CCOC(=O)c1ccc(NC(=O)C(CC)Sc2nc3ncccc3[nH]2)cc1", "note": "(stereo not drawn)", "activity change, negative = inhibition": "inactive: -1.67%"}
{"smiles": "COc1ccc(-n2nc(C(=O)N3CCN(c4ccccc4OC)CC3)c3c4ccccc4n(C)c3c2=O)cc1", "activity change, negative = inhibition": "inactive: -8.28%"}
{"smiles": "Nc1ncnc2c1ncn2[C@@H]1O[C@H](CO)[C@@H](O)[C@@H]1O", "activity change, negative = inhibition": "inactive: -28.8%"}
{"smiles": "Cc1ccc(CNC(=O)c2ccc(CSCc3ccc(Cl)cc3)o2)cc1", "outcome": "inactive"}
{"smiles": "CCc1ccccc1NC(=O)CN1C(=O)CCc2cc(S(=O)(=O)N3CCCCC3)ccc21", "activity change, negative = inhibition": "inactive: 1.64%"}
{"smiles": "O=C(Nc1cc(C(F)(F)F)ccc1Cl)c1cc2nc(-c3ccc4c(c3)OCO4)cc(C(F)(F)F)n2n1", "activity change, negative = inhibition": "inactive: -5.53%"}
{"smiles": "Cn1c(=O)oc2cc(S(=O)(=O)N3CCCC(C(=O)Nc4ccc(Br)cc4F)C3)ccc21", "note": "(stereo not drawn)", "activity change, negative = inhibition": "inactive: 5.85%"}
{"smiles": "O=C(NCc1cccc(F)c1)C1=Cc2cc(Br)ccc2OC1", "activity change, negative = inhibition": "inactive: 4.55%"}
{"smiles": "Cc1ccc(-n2ccnc(NCc3ccccc3)c2=O)cc1C", "activity change, negative = inhibition": "inactive: 1.16%"}
{"smiles": "O=C(CSc1nc2c(oc3ccccc32)c(=O)n1Cc1ccco1)Nc1cccc(Cl)c1", "outcome": "inactive"}
{"smiles": "COc1ccc(OCCCn2c(=O)oc3ccc(C)cc32)cc1", "activity change, negative = inhibition": "inactive: -3.11%"}
{"smiles": "COc1ccc(N(CC(=O)NCc2ccc(F)cc2)S(=O)(=O)c2c(C)n[nH]c2C)cc1", "outcome": "inactive"}
{"smiles": "Cc1ccc(C)c(Cn2nnc(C(=O)NCc3ccc(Cl)cc3Cl)c2N)c1", "activity change, negative = inhibition": "inactive: -3.7%"}
{"smiles": "COc1cc2c(cc1NS(=O)(=O)c1cccc(C#N)c1)n(C)c(=O)n2C", "activity change, negative = inhibition": "inactive: 8.63%"}
{"smiles": "Cc1cc(C)cc(NC(=O)CN2C(=O)c3ccccc3Sc3ccc(C(=O)N4CCOCC4)cc32)c1", "activity change, negative = inhibition": "inactive: -9.12%"}
